Drawing on paper PMC12136788, this text covers binding signal for 22 molecules.

The list shows a part of the results.

To fix the notation:
T1: UNK ZnF1-6 (called full-length) (human, UniProt Q9C0B0 30-357)
T1 sequence: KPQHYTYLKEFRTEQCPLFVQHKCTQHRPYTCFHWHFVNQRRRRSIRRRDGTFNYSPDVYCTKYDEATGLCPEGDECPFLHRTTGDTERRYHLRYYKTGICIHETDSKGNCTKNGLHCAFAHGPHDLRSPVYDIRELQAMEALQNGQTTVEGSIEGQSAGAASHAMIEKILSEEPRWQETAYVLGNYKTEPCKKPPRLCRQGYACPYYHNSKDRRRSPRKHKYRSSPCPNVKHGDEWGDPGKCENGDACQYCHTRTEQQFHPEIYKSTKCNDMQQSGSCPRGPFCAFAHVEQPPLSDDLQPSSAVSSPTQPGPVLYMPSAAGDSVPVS

B1: chr5:96979339:96979440:+|CDS|ENSG00000113441|unk|FALSE|bound_elsewhere (ssRNA)
RNA: GGGAGUUCUACAGUCCGACGAUCGAGGAGGAUGAAGAGGAUUAUGAGUCAUCAGCAAAGCUGCUGGGCAUGUCCUUCAUGAAUAGAAGCUCAGGCCUUCGGAACAGUGCAACUGGUUACAGGCAGAGCCCAGAUGGGGCUUGUCAACAGAGGAUUGAGCAUCA
B2: chr12:96953524:96953626:+|3pUTR|ENSG00000139350|unk|total|mutant (ssRNA)
RNA: GGGAGUUCUACAGUCCGACGAUCCUUUUUUAAAAAAAUAAAUACACAUAAUGUAUAUUAAAAGAGGUGGGAUGAAAUAAUUUCCGUAAUUAUGUGUACAGAUGAAACAUUUUUGUCAUGGAAUUUAAAAGCUAAGUAAGUAUACAACAGAGGAUUGAGCAUCA
B3: chr21:44330462:44330919:-|CDS|ENSG00000160226|control|control|control (ssRNA)
RNA: GGGAGUUCUACAGUCCGACGAUCUUCCCUCUCAGCCAGGGAUGCCUCGAGCAGCCACAGGGGCAGGGUGAGUGGCGGGCCGCUAGGGGCCGCGGCUGCCUCUGCCCACUGCACCCACUGCACAGAAACCGUGGGGAGGGAGCACAACAGAGGAUUGAGCAUCA
B4: chr12:6965432:6965572:-|3pUTR|ENSG00000215021|unk|FALSE|unique (ssRNA)
RNA: GGGAGUUCUACAGUCCGACGAUCUGCGAUGGUCCCCCACACCGGUUCCCUGAACCCCUCUUGGAUUAAGGAAGACUGAAGACUAGCCCCUUUUCUGGGGAAUUACUUUCCUCCUCCCUGUGUUAACUGGGGCUGUUGGGGACACAACAGAGGAUUGAGCAUCA
B5: chr1:19339193:19339294:-|3pUTR|ENSG00000077549|msi1|FALSE|unique (ssRNA)
RNA: GGGAGUUCUACAGUCCGACGAUCGAGACCGUGUGGUUUUUGUUCACCCGGGCCCCCCGUCUUCCUCCCUGUCCCCCCAUUUAUAGGCAUAAAAUCCACUGUCUGCCAGCCUCCCUUCCCUCCCACCUUUUUGGUACAUUGGUGCAACAGAGGAUUGAGCAUCA
B6: chr21:43758806:43758907:+|3pUTR|ENSG00000160209|msi1|FALSE|unique (ssRNA)
RNA: GGGAGUUCUACAGUCCGACGAUCACUUUCUUAAUCCAGUUUUUCAAACUUCUCCCUGUAGACCGUAAGGAUGAAUUCCACAAUAGGAUCCUUUUUAAAAUCGAUUUUAAAUUGUUGCCUAGUCCUGCCAAGGUUAUUAUGUGCCAACAGAGGAUUGAGCAUCA
B7: chr5:78475949:78476050:+|3pUTR|ENSG00000085365|msi1|total|mutant (ssRNA)
RNA: GGGAGUUCUACAGUCCGACGAUCACCCACUGAAAAUUAAUAAUGGUACUUAUGAUUAAAAACGCAUUUAAUACUAACUGCAGCCGUUCUUUCAAGAAUCUUCCGAGAUAAGGAUUGCACAUUGGAAAAGUAAACCAUGUUUCACAACAGAGGAUUGAGCAUCA
B8: chr17:58089832:58089920:+|3pUTR|ENSG00000264364|msi1_unk|total|mutant (ssRNA)
RNA: GGGAGUUCUACAGUCCGACGAUCAUUCCACUGAACUGUGAUUCUAUGGCUUGGGGCGGAGGGUGGGGUGGGGAUGCCUUCUUCCGGGGCCCUGAGAUGUGUUUGUCUGUGGUGUGUGGGAGUGGGGAGCAGAUUUGUCUUGCUCAACAGAGGAUUGAGCAUCA
B9: chr12:909583:909684:+|3pUTR|ENSG00000060237|unk|total|mutant (ssRNA)
RNA: GGGAGUUCUACAGUCCGACGAUCCCGCUCUGUCCUUUACUUAUUGAGACACUUUAACUUUUUCCUUUGUAUUUCCAUUGUAUCCGAUAAAUAAAUGUGAAUGUAAAAUUGUAUAAAUUACUGUACUUGAAUACUUCUGUUUCCCAACAGAGGAUUGAGCAUCA
B10: chr13:24434660:24434761:-|CDS|ENSG00000102699|unk|FALSE|unique (ssRNA)
RNA: GGGAGUUCUACAGUCCGACGAUCCCCUCUGCUUCCUCUCCUUUUCAUUUUCAACCUUCCGCAGCCUCUUUGACUGCCAACCUUAGGCUGCCAAUGGCCUCUGCUUUACCUGAGGCUCUUUGCAGUCAGUCCCGGACUACCCCACAACAGAGGAUUGAGCAUCA
B11: ENSG00000198589:be:win_2451|CDS|ENSG00000198589|bound_else_gene|NA|bound_elsewhere_windowed (ssRNA)
RNA: GGGAGUUCUACAGUCCGACGAUCGAUACUAAAAGUAAUUGCGACCCUACUUCGAAAUUCUCCCCAGUGCCCAGAGAGCAUGGAGGUUCGCAGAGCCUUUCUUUCUGACAUGAUUAAACUUUUUAAUAACAGUAGAGAAAACAGCAACAGAGGAUUGAGCAUCA
B12: ENSG00000112146:stop:overlap|stop_codon|ENSG00000112146|stop_codon|NA|stop_codon (ssRNA)
RNA: GGGAGUUCUACAGUCCGACGAUCACACCCCCUUGUUCUUCGCCAGAGUAAGGAGCUACACAGCUUUCUCAGAAAGGCCUCUGUAGAGCCUCAAGUCCAGUCCUCUAUCACUUUUGCAUGAAUUAAAGUAUAUAGCGCAAAAGACAACAGAGGAUUGAGCAUCA
B13: chr9:96387934:96388035:-|3pUTR|ENSG00000165244|msi1|FALSE|unique (ssRNA)
RNA: GGGAGUUCUACAGUCCGACGAUCAAUAUUUUGUAAAUAUGGACUGCACAGUACAGGGUAGAAAACUACAUAUUGUGGGAAGCUAGAUUUUGCAAGUUUAAUGCAUUCAUUGGAAGCAGUUCUCACAGGAAGCACUUUCUGAAUCAACAGAGGAUUGAGCAUCA
B14: chr17:57974666:57974767:-|CDS|ENSG00000136451|msi1|FALSE|bound_elsewhere (ssRNA)
RNA: GGGAGUUCUACAGUCCGACGAUCGAGCAUGAGAAGUCCAGUAAAUGUUUCAAGUGCAGUUAACAUAACCAGCCCAAUGAACAUAGGGCAUCCUGUAACUAUAACCAGUCCAUUAUCCAUGACCUCUCCUUUAACACUCACUACCAACAGAGGAUUGAGCAUCA
B15: chr15:42745797:42746257:-|CDS|ENSG00000128881|control|control|control (ssRNA)
RNA: GGGAGUUCUACAGUCCGACGAUCAGUCCCAGUGCCUCUCCUCGAAGCUCAUCCUUGCCUCGCACGUCUAGUUCCUCACCAUCUAGGGCUGGACGGCCCCACCAUGACCAGAGGAGUUCGUCCCCACAUCUGGGGAGAAGCAAGCAACAGAGGAUUGAGCAUCA
B16: chr12:106067485:106067586:-|CDS|ENSG00000074590|msi1|FALSE|unique (ssRNA)
RNA: GGGAGUUCUACAGUCCGACGAUCCCUGAAGAAGCGAAGCAACAGCGAGCAUCGCUCUCACAGCACUGGCUUCAUUGAAGGUGUAGUUGGUCCUGCCUUACCCUCUACUUUCAAGAUGGAGCAGGACUUGUGCAGGACUGGCGUCAACAGAGGAUUGAGCAUCA
B17: chr21:46004801:46004902:+|3pUTR|ENSG00000142156|msi1|FALSE|unique (ssRNA)
RNA: GGGAGUUCUACAGUCCGACGAUCAGACUGGGGCCUGGACUGGACAUGAGAGCCCCUUGGUGCCACAGAGGGCUGUGUCUUACUAGAAACAACGCAAACCUCUCCUUCCUCAGAAUAGUGAUGUGUUCGACGUUUUAUCAAAGGCAACAGAGGAUUGAGCAUCA
B18: chr3:87253716:87253817:+|CDS|ENSG00000083937|unk|FALSE|unique (ssRNA)
RNA: GGGAGUUCUACAGUCCGACGAUCUGCCUCUACUUCAAAGGCUACAAUCUCAGAUGAAGAGAUUGAACGGCAACUCAAGGCUUUAGGAGUAGAUUAGUCAAAAGAAGUCAUACUAUUUUGCUUACUUAUAAUUAUGUAGUAUAACAACAGAGGAUUGAGCAUCA
B19: chr1:61455842:61455953:+|3pUTR|ENSG00000162599|unk|FALSE|unique (ssRNA)
RNA: GGGAGUUCUACAGUCCGACGAUCUUUUCUGUAACAUAUUGGAAAAAGAAAAUGCAGUUAUAUUCCUUUUUUAUUUGUUCCUUUAGUUUGUUUUGGUUCAGCAGUCAGCAGUUAAGUAUAUAACAUGGCCCGCAAGGACAAUGACAACAGAGGAUUGAGCAUCA
B20: chr1:202726062:202726163:-|3pUTR|ENSG00000117139|unk|total|mutant (ssRNA)
RNA: GGGAGUUCUACAGUCCGACGAUCGAAAUGCACCUGAUUUGCCAUUAUACCCACCAUCAAAAGCAACAUGGCCCUUUGGGUAUCCGUGCAAGAUCCGCCUAAGAACCGAGCCGAUCUCUACCUGGAAGAGGGUGAAACAUGGCUCAACAGAGGAUUGAGCAUCA
B21: chr8:122973292:122973393:+|3pUTR|ENSG00000178764|msi1|total|mutant (ssRNA)
RNA: GGGAGUUCUACAGUCCGACGAUCAGAGAUGGUCUCUCCCCAGCCAUGGGCCACCCUUGCCAGUGACUCCAAGUGGAACUACUCCGCUCGCGUGUGCCUGGAGGGUGCGGGAAGUCCAGCGACUCUCAGACGCACCUCCCAGAGCAACAGAGGAUUGAGCAUCA
B22: chrX:48700291:48700392:+|CDS|ENSG00000101945|unk|total|mutant (ssRNA)
RNA: GGGAGUUCUACAGUCCGACGAUCGCUCCGUCGCUGGGAGCAGGAGCUCAAUGCCAAGCGCAGCCAUCUGGGACGCAUCACUGCCGAGAAUGAGGUGGACCUGGACGGCCCUCCGCGGGCCUUCGUGUACAUCAAUGAGUACCGCAACAGAGGAUUGAGCAUCA

The assay deals with T1, UNK ZnF1-6 (called full-length). Kind of assay: nsRBNS (natural sequence RNA bind-n-seq); RBNS binding buffer (assumed for nsRBNS): 25 mM Tris pH 7.5, 150 mM KCl, 3 mM MgCl2, 0.01% Triton X-100, 500 ug/ml BSA, 20 U/ml SUPERase-In, 4 C; UNK is unkempt and MSI1 is Musashi-1; names of the RNAs are library labels; protein concentration not given here; high values mean tight binding.
For the molecule B1, the binding signal came to 0.686 enrichment R.

B2 yielded a binding signal of 0.869 enrichment R.

For B3, the binding signal turned out to be 0.583 enrichment R.

For B4, the binding signal came to 0.682 enrichment R.

The molecule B5 had a binding signal of 1.44 enrichment R.

As to B6, the binding signal worked out at 1.16 enrichment R.

Molecule B7 had a binding signal of 0.405 enrichment R.

B8 showed a binding signal of 1.32 enrichment R.

As to B9, the binding signal worked out at 1.02 enrichment R.

Take B10: the binding signal worked out at 0.9 enrichment R.

For B11, the binding signal came to 0.591 enrichment R.

For B12, the binding signal was found to be 0.367 enrichment R.

The molecule B13 gave a binding signal of 0.37 enrichment R.

Turning to B14, the binding signal is 0.491 enrichment R.

The molecule B15 gave a binding signal of 0.573 enrichment R.

In turn, B16 had a binding signal of 0.473 enrichment R.

B17 had a binding signal of 0.833 enrichment R.

Consider B18, for which the binding signal was 1.1 enrichment R.

In the case of B19, the binding signal came to 0.708 enrichment R.

B20: the binding signal turned out to be 0.49 enrichment R.

For the molecule B21, the binding signal was 0.578 enrichment R.

In turn, B22 returned a binding signal of 0.67 enrichment R.
